The molecules below were run against PRMT5/MEP50 Complex (Homo sapiens (Human), UniProt O14744) (assay: PRMT5 inhibition based on TR-FRET assay). Conditions: 32 nM PRMT5:MEP50, 50 nM Histone-H4 peptide, 1 μM SAM.
Format: biochemical
Text: PRMT5 Inhibition Based on TR-FRET Assay:
Protein arginine methyltransferase 5 (PRMT5) is a type II arginine methyltransferase that catalyze mono- and symmetric demethylation on arginine residues of histone or non-histone proteins in presence of S-adenosylmethionine (AdoMet or SAM) a cofactor responsible for donating the methyl group. PRMT5 is reported to be overexpressed in several human cancers. To identify compounds that inhibit the PRMT5 and decrease its activity, a TR-FRET based assay has been established. Time-resolved fluorescence resonance energy transfer (TR-FRET) HTS assays are homogeneous proximity assays where the interaction of two dye-labeled binding partners is detected by the energy transfer between a donor and an acceptor dye and the subsequent light emission by the acceptor dye. PRMT5 catalyzes Histone H4 peptide which is biotin tagged to the Lysine amino acid at carboxyl end, in presence of S-adenosyl-1-methionine (SAM) to methylate the peptide. The antibody specific to mono methylated H4 peptide (H4R3) with Ig conjugate binds to the methylated peptide, indirectly binding to the Europium lanthanide. SureLight Allophycocyanin-Streptavidin binds to the biotin tag of the peptide, therefore accepting the energy transferred from the Europium lanthanide. This energy transfer between Europium to SureLight Allophycocyanin is a direct measure of the activity/inhibition of the PRMT5 enzyme.
Assay buffer: 20 mM BICINE (pH 7.6), 25 mM NaCl, 2 mM DTT, 0.01% Tween-20 and 0.01% BSA.
The compound dilutions were prepared as 7.5% DMSO stock solutions in assay buffer. To 2 μL (7.5×) of test compound, 5 μL of PRMT5 enzyme prepared in assay buffer (Final concentration of 32 nM in 15 μL reaction volume) was added and allowed for 30 minutes pre-incubation time in a white polystyrene 384-well plate at room temperature. […] The plates were then read on Victor-3 with Excitation at 340 nm and Emissions collected at 615 and 665 nm in TR-FRET protocol. […]

UniProt O14744, sequence (O14744 whole entry): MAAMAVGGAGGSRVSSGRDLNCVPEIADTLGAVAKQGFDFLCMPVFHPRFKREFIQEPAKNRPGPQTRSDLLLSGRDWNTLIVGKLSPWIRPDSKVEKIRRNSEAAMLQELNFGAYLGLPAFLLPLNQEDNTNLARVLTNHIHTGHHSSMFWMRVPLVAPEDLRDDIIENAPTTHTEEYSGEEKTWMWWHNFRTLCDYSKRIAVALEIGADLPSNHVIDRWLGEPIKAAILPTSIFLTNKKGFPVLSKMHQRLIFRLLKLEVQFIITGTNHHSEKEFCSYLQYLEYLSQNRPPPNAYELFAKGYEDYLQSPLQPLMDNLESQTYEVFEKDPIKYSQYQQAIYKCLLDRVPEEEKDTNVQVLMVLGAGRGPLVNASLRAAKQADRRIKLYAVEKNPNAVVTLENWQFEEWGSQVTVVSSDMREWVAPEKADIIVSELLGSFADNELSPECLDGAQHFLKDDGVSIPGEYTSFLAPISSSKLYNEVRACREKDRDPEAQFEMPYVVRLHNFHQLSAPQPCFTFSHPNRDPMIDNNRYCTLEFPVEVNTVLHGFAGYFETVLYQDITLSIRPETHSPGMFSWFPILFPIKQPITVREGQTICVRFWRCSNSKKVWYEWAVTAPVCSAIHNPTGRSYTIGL
UniProt O14744, sequence (Q9BQA1 whole entry partner): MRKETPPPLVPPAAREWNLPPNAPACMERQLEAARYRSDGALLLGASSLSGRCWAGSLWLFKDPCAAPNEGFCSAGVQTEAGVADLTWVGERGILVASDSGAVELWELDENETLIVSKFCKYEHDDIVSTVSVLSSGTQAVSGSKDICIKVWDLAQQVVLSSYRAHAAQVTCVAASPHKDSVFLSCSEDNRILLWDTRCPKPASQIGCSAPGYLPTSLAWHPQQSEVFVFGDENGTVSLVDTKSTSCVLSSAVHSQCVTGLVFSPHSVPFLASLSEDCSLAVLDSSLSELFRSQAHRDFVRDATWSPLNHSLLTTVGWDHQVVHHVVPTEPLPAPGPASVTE

| SMILES | IC50 |
| --- | --- |
| C=C(C)c1ccc(CN2CCN(CC(O)CN3CCc4ccccc4C3)C2=O)cn1 (stereo not drawn) [Example 26] | 0.1 µM |
| Cc1cccc(CN2CCN(CC(O)CN3CCc4ccccc4C3)C2=O)n1 (stereo not drawn) [Example 22, 1-(3-(3,4-dihydroisoquinolin-2(1H)-yl)-2-hydroxypropyl)-3-((6-methylpyridin-2-yl)methyl)imidazolidin-2-one] | 0.39 µM |
| CC1(C)C(=O)N(Cc2ccc(C#N)cc2)C(=O)N1CC(O)CN1CCc2ccccc2C1 (stereo not drawn) [Example 24, 4-((3-(3-(3,4-dihydroisoquinolin-2(1H)-yl)-2-hydroxypropyl)-4,4-dimethyl-2,5-dioxoimidazolidin-1-yl)methyl)benzonitrile] | 0.33 µM |

From patent US11365205B2 (Aurigene Discovery Technologies Limited, priority 2018, dated 2022)
